# Measured values: the BET-seq Pho4 binding data (Le et al. 2018)
# The list shows a part of the results. The energies were worked out here from pooled read counts, against the library average; single values are noisy.
# Target: T1, Pho4 (S. cerevisiae) (UniProt P07270)
# T1 sequence: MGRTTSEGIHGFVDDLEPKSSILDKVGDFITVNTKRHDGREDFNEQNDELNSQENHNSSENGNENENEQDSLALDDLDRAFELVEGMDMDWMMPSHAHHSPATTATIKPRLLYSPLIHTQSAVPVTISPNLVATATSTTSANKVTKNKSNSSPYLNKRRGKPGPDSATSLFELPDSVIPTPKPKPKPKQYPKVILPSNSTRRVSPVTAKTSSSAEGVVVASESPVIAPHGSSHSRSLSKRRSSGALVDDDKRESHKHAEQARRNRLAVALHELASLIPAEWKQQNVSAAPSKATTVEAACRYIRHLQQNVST
# Test: relative binding free energy (BET-seq); higher = weaker binding
# Details: reference: library average
row,Sequence,relative binding free energy [kcal/mol]
1,TGGTCCACGTGCGGGG,-0.05
2,TGGTGCACGTGGGTAA,-0.15
3,TGATGCACGTGGTCAG,-0.02
4,GGATGCACGTGTCTGT,0.01
5,GTTTACACGTGAGCTT,0.33
6,TGTATCACGTGGTAGC,0.16
7,ACGATCACGTGGGGGA,-0.04
8,GGTGTCACGTGTTTTG,0.03
9,TGTGACACGTGGGACA,-0.06
10,GTGTGCACGTGGTGGC,-0.13
11,CAGGGCACGTGGATGA,-0.06
12,ATGTCCACGTGTGTAT,-0.13
13,ATGGTCACGTGTGCGC,0.1
14,GTATTCACGTGTGCGG,0.18
15,TTCATCACGTGGAGCG,0.17
16,TTTATCACGTGTACTT,0.19
17,TTCGCCACGTGGTGTG,-0.28
18,GAGGGCACGTGAATGA,0.2
19,GAGTGCACGTGCTGGT,-0.02
20,AAGGTCACGTGTATCG,0.08
21,ATTGACACGTGTTTAG,0
22,GGCCTCACGTGAGGGT,0.31
23,CAGGCCACGTGATGTG,0.1
24,GTTGTCACGTGAGTAC,0.38
25,ATGATCACGTGTAGGG,0.2
26,GGGCTCACGTGTTAAT,0.31

row,Sequence,relative binding free energy [kcal/mol]
1,CTAAGCACGTGTTGTT,-0.09
2,AGCTGCACGTGTTTAT,-0.04
3,CGTGTCACGTGGTCGG,0.05
4,TTAGCCACGTGTGAGG,-0.02
5,GGTGCCACGTGATTTA,0.22
6,AGGCTCACGTGAGAGT,0.46
7,TCTTGCACGTGAAGAG,0.27
8,AGTTTCACGTGCTATG,0.17
9,TCTATCACGTGTGGGA,0.05
10,TGTTGCACGTGTGAAA,0.12
11,TGATACACGTGGTGCA,-0.03
12,AGGAACACGTGGTTAA,0.06
13,GCTGTCACGTGGGATT,0.1
14,AGTAGCACGTGCGTTG,-0.13
15,AGGCGCACGTGGCTGG,-0.23
16,GTAGGCACGTGCCGTT,-0.15
17,TGATGCACGTGTCATG,-0.1
18,TCGGCCACGTGTGTTG,-0.09
19,CATTTCACGTGTTTTG,0.18
20,ATTTACACGTGGCATA,0.1
21,GAGTTCACGTGGTAGT,0.4
22,ATGTCCACGTGGGGAG,-0.07
23,TCGAGCACGTGATTTG,0.11
24,CGGAGCACGTGAGGAG,0.1
25,TCGGGCACGTGGGTGG,-0.19
26,TAGAACACGTGGGGTG,-0.15

row,Sequence,relative binding free energy [kcal/mol]
1,GCATTCACGTGGAGTG,0.15
2,TGTAGCACGTGACTGT,0.12
3,GCGAGCACGTGGTAGT,-0.2
4,AGAGCCACGTGGCGGG,-0.19
5,GGTATCACGTGAAATT,0.31
6,CATGGCACGTGTTGAT,-0.05
7,TTATGCACGTGATACT,-0.01
8,ATAGTCACGTGTTGGG,0.05
9,GGAGTCACGTGTTTGT,0.11
10,TGGTACACGTGGATCT,0.12
11,TGTCTCACGTGTGAGC,0.33
12,AGCGGCACGTGGCATG,-0.25
13,ATTGGCACGTGATGGC,-0.08
14,CTGCACACGTGGGGGA,-0.05
15,ATGGACACGTGGTTTG,-0.02
16,TTTTCCACGTGGGTTA,-0.07
17,AGAGACACGTGTTTTT,0
18,TGTTGCACGTGTACGT,0.05
19,ATCGTCACGTGTATGG,0.09
20,TCAGTCACGTGTTGAT,-0.07
21,GCGTACACGTGGATGG,0.01
22,GCATGCACGTGGGCGT,-0.14
23,CAGGGCACGTGTGATT,0.13
24,GGTAGCACGTGATTGC,0.01
25,TTCGCCACGTGAGGGG,0.14
26,GGTATCACGTGGGCGG,-0.04

row,Sequence,relative binding free energy [kcal/mol]
1,GTATTCACGTGAAGAT,0.22
2,TGGTGCACGTGAAAGC,0.23
3,TGGTGCACGTGAATGC,0.14
4,GAAGGCACGTGGATTG,0.02
5,AGGACCACGTGTGGGT,-0.14
6,TTGTACACGTGGCGAT,0.05
7,CATATCACGTGTGGAG,0.15
8,TTAATCACGTGTATAT,0.14
9,AGGTGCACGTGCGTTA,-0.11
10,TCTTGCACGTGGGTAA,-0.21
11,TAGGTCACGTGGTAAA,0.15
12,AGGTTCACGTGTGCTT,0.25
13,AATAACACGTGGGGTG,-0.25
14,GAAGTCACGTGGTCGT,0.08
15,TTAGTCACGTGAGCTG,0.22
16,GTTGGCACGTGAGGTT,0.28
17,TAAGGCACGTGCGGAG,-0.17
18,GCGTACACGTGGGGGT,0.05
19,CTAATCACGTGTAAGG,0.31
20,AACGTCACGTGTATTT,0.11
21,TTGTTCACGTGCTTTC,0.2
22,GTACTCACGTGAGGGT,0.41
23,GGTCGCACGTGGGTGA,-0.16
24,GTGGTCACGTGGTGAG,0.14
25,AATAGCACGTGTGGTC,0.01
26,CCGTGCACGTGGTGTG,-0.19

row,Sequence,relative binding free energy [kcal/mol]
1,CTGTGCACGTGGATTT,0.05
2,TGATGCACGTGAATGA,0.21
3,ATCGGCACGTGGATCG,0.13
4,TAGTACACGTGATATT,0.14
5,TAACTCACGTGTGTTA,0.13
6,ATGTGCACGTGCCTGT,-0.23
7,TAGTTCACGTGACGGC,0.43
8,TGTTTCACGTGGGCAC,0.06
9,GCGGTCACGTGTATTA,0.24
10,GTTGTCACGTGTATAA,0.16
11,TTGTGCACGTGAAGAT,0.11
12,AGGCACACGTGTGGTT,0.16
13,GATATCACGTGGGGCG,0.21
14,GACGGCACGTGGGGAC,-0.04
15,ATGAGCACGTGAGGGA,0.06
16,GCTGTCACGTGGGTAA,-0.02
17,GAAGTCACGTGTTGGA,0.22
18,CTTTTCACGTGCTTGG,0.15
19,ATTGGCACGTGGATCA,-0.09
20,GAGAACACGTGTGTTG,-0.06
21,AAGGACACGTGTTGTT,-0.08
22,TCTTTCACGTGTGATT,0.21
23,TAATACACGTGTGTTA,0
24,TGTCGCACGTGTGTGA,-0.05
25,ATATTCACGTGGTAAA,0.23
26,TTTGGCACGTGTGGAT,0

row,Sequence,relative binding free energy [kcal/mol]
1,TGGTACACGTGTCGGT,0.03
2,GGTGGCACGTGTGAAA,-0.04
3,TAATGCACGTGTAGGG,0.07
4,GCAGTCACGTGGGTGC,-0.04
5,GTTTGCACGTGTTTCT,0.05
6,GAAGGCACGTGCTGGC,0.06
7,ATTATCACGTGGTGAA,0.15
8,ATGGTCACGTGAAGGG,0.32
9,TGCCTCACGTGTTGGG,0.1
10,GCTTGCACGTGGAGGA,-0.04
11,TGTTCCACGTGCGTTT,0.04
12,TCTGGCACGTGTTGTC,-0.01
13,GTACTCACGTGTGGTT,0.36
14,ATATACACGTGCGGTG,0.01
15,CGATACACGTGGGATG,-0.03
16,CGTGACACGTGGGCTG,-0.21
17,GGGGTCACGTGACTGA,0.27
18,CTTTGCACGTGCGTGA,-0.07
19,AATGTCACGTGGTTAG,0.07
20,AGAAACACGTGGGGAG,-0.18
21,GTGAGCACGTGGTAAA,0.01
22,TTGGTCACGTGCTGGG,0.14
23,TGGAACACGTGAGAGG,0.22
24,AGGATCACGTGAAGGG,0.34
25,TTTTCCACGTGGGCGT,-0.03
26,CGGTTCACGTGTATAG,0.28

row,Sequence,relative binding free energy [kcal/mol]
1,GTTCACACGTGGTTTA,0
2,CGGGTCACGTGGGATC,0.09
3,AGCGGCACGTGGCCGG,-0.13
4,TAACGCACGTGTTATG,-0.05
5,TGGGGCACGTGAGCCA,0.17
6,TGCGCCACGTGGTTGT,-0.14
7,AGGGCCACGTGAGGAG,0.13
8,CGTTGCACGTGGTTGG,0.05
9,TGTATCACGTGATCTG,0.13
10,GATAGCACGTGTGTGT,-0.09
11,TTGGGCACGTGTCTGC,-0.19
12,CAGTGCACGTGAGTTA,0.34
13,AATTGCACGTGTGTAG,0.01
14,TATGACACGTGAGATG,0.22
15,TTTATCACGTGGTTCG,0.09
16,GTTGGCACGTGGGAAT,-0.14
17,GGCGACACGTGAAGGT,0.23
18,AATTGCACGTGGGTGA,-0.05
19,GACGGCACGTGTTATG,0.04
20,TAGTGCACGTGCTGAT,-0.04
21,AGTTTCACGTGATGTG,0.25
22,CTTGACACGTGGTGTG,-0.12
23,AAATTCACGTGATATT,0.22
24,TTAATCACGTGATATG,0.24
25,CGTTGCACGTGAGAGG,0.22
26,GTCGCCACGTGCGGGG,-0.18

row,Sequence,relative binding free energy [kcal/mol]
1,ACGTTCACGTGGGCGT,0.14
2,GTCGTCACGTGTGAGA,0.25
3,CAGGTCACGTGGCTGG,-0.09
4,TGTTTCACGTGAGTTT,0.44
5,GTGATCACGTGAGGTA,0.16
6,ATGATCACGTGGCGGA,0.17
7,ATGGTCACGTGGCTGC,0
8,GTTGTCACGTGGGGCG,0.08
9,AGCAGCACGTGGGTGT,-0.25
10,GGTTCCACGTGGGCTG,-0.04
11,GATGTCACGTGTATAT,0.23
12,TAGGACACGTGAGAAG,0.28
13,ATTTGCACGTGTGTTT,0.01
14,TTGGTCACGTGGAAGG,0.2
15,GTATTCACGTGTGTCT,0.39
16,GTAATCACGTGTATTA,0.12
17,ATTTACACGTGACTGT,0.15
18,ATTTTCACGTGGCGTC,0.26
19,GGTTGCACGTGGTTAT,0.17
20,GGGCTCACGTGGGACG,0.26
21,TATAGCACGTGGTACG,-0.14
22,ATTGGCACGTGGGTGC,-0.23
23,GAATACACGTGTAGGT,0.17
24,CATTGCACGTGGTTTC,0
25,AAGGTCACGTGTGCGA,0.05
26,TTCTGCACGTGGGCTA,-0.11

row,Sequence,relative binding free energy [kcal/mol]
1,GTTTTCACGTGCTAAA,0.38
2,GAGTACACGTGCGGGC,0.08
3,GTTATCACGTGTGAGG,0.33
4,CAGTGCACGTGATGGG,0.05
5,AGTGTCACGTGGGAGG,-0.02
6,CTGGGCACGTGTTCTG,-0.16
7,GGTGGCACGTGGATAT,0.03
8,TTGTTCACGTGGTTCC,0.29
9,GTAATCACGTGGTGGT,0.12
10,AGGTACACGTGGGGAA,-0.15
11,TGGCACACGTGGTAGT,-0.11
12,TTTTCCACGTGTAGGA,0.08
13,GAACGCACGTGGGGGT,-0.25
14,GCAGACACGTGAGGTG,0.21
15,CTTGTCACGTGGGTAG,-0.11
16,TAATTCACGTGATGTC,0.29
17,GTATACACGTGAGTTA,0.24
18,TGCATCACGTGTGGTT,0.36
19,TAGTACACGTGGTTGA,-0.02
20,GATGTCACGTGTATGC,0.05
21,AGTGTCACGTGCAGGT,-0.08
22,TAAGCCACGTGGGAGT,-0.12
